In PubChem BioAssay AID889 (National Center for Advancing Translational Sciences (NCATS), 2007):
Among all 75,000 compounds or so, about 15 (0.02%) were called active. Inconclusive results, whose numbers are uncertain, are shown with a selection of clear calls. The call rests on the fitted dose curve; in most records, active means well fitted inhibition curve with a large enough effect in the main read-out, with a control signal flat (not every such curve was filed as active); inconclusive means small, poorly fitted or top-dose-only effect, or a change in a side signal; inactive means flat fitted curve, though single readings scatter. Potencies beside an inconclusive call are fits to weak or partial responses and may not hold up. “Side channel” marks fits to a control or component signal instead of the main read-out.
Potency means the concentration at half of the fitted maximal effect; tags describe the fitted curve by direction and shape or compound fluorescence and quenching.
Wherever activity change, negative = inhibition is given: % of control where 0% means no effect.

The compounds below were run against Caspase-7 (Homo sapiens) (UniProt P55210) (assay: qHTS Assay for Allosteric/Competitive Inhibitors of Caspase-7). Settings: recombinant caspase-7, Ac-DEVD-AFC fluorescence rate; activity change, negative = inhibition: at 57.5 µM (top of the series) unless noted.
Sequence of UniProt P55210 (P55210 whole entry, looked up): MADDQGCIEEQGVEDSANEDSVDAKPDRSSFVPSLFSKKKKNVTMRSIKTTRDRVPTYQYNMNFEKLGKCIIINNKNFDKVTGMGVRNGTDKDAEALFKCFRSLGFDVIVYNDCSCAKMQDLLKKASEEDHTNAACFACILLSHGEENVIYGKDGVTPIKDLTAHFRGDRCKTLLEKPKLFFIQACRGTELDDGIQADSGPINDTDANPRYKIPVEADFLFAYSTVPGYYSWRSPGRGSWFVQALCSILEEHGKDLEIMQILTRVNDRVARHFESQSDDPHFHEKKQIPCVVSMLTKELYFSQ
`O=C1Nc2ccc(S(=O)(=O)N3CCOCC3)c3cccc1c23` was tested, and the Potency was inconclusive: 25.1 µM [fluorescent, partial curve]. In the case of `CCCn1c(NCc2cc(C)ccc2O)nc2ccccc21`, the Potency was “inactive”. `O=c1c(-c2cccs2)nc2cnc(Oc3ccccc3)nc2n1C1CC1` was tested, and the Potency was inconclusive: 12.6 µM [fluorescent, side channel, partial curve]. In the case of `Cc1nnc(SCc2cnc(-c3ccc(C(C)C)cc3)s2)n1C`, the Potency was “inactive”. With `COc1cccc(Cn2c(=O)c(-c3ccc(F)cc3)nc3cnc(N(C)C)nc32)c1` the Potency was inconclusive: 2.51 µM [fluorescent, full curve]. `c1ccc(-c2ccc(-c3nc(-c4ccncc4)no3)cc2)cc1` was tested, and the Potency was “inactive”. In the case of `COC(=O)[C@@]1(Cc2ccc(OC)cc2)[C@H]2c3cc(C(=O)N(C)C)n(Cc4cc(F)c(F)c(F)c4)c3C[C@H]2CN1C(=O)c1ccccc1`, the Potency was “inactive”. In the case of `O=C(Nc1ccc(Cl)cc1)c1ccncc1`, the Potency was “inactive”. For `O=C(CN1C(=O)c2cccc3cccc1c23)Nc1cccnc1`, the Potency was inconclusive: 25.1 µM [fluorescent, single point]. In the case of `O=C(c1cc2nc(-c3ccc(F)cc3)cc(C(F)(F)F)n2n1)N1CCCC1`, the Potency was “inactive”. `CCC(CC)COC(=O)C(C#N)c1nc2ccccc2nc1N1CCN(CC)CC1` (stereo not given) was tested, and the Potency was inconclusive: 12.6 µM [inhibitor, partial curve]. For `CC(C)=CCCC(C)CCO` (stereo not given), the Potency was “inactive”. With `C=C(C)CC1Nc2ccccc2NC1CC(=C)C` (stereo not given) the Potency was inconclusive: 31.6 µM [inhibitor, single point]. With `COCCn1nnnc1CN(Cc1cccnc1)Cc1cc2cc(OC)ccc2[nH]c1=O` the Potency was inconclusive: 31.6 µM [fluorescent, single point]. In the case of `N#CCCn1c(=O)c(-c2ccc(F)cc2)nc2cnc(OCc3ccccc3)nc21`, the Potency was inconclusive: 25.1 µM [inhibitor, single point]. For `COc1ccc(COC(=O)N/N=C2/C[C@@H](O)[C@@H](O)[C@@H]3[C@H]4C(=O)N(c5ccc(F)cc5F)C(=O)[C@@H]4CC[C@H]23)cc1`, the activity change, negative = inhibition was inactive: 3.54% [at 11.5 µM]. For `COc1cc2ccc(=O)oc2c(OC)c1OC`, the Potency was “inactive”. For `O=C(OCc1nnc(-c2ccc(Cl)cc2)o1)c1ccncc1`, the Potency was “inactive”. With `CN1CCN(c2ncc3nc(-c4ccccc4)c(=O)n(C)c3n2)CC1` the Potency was inconclusive: 12.6 µM [fluorescent, side channel, partial curve]. With `Cc1nc2cnc(Nc3ccccc3)nc2n(C2CC2)c1=O` the Potency was inconclusive: 39.8 µM [inhibitor, single point].
